Potency data for 91 molecules are collected here from PubChem BioAssay AID360 (National Center for Advancing Translational Sciences (NCATS), 2006).

About 550 (1.1%) of roughly 48,000 compounds were called active. About 4% were inconclusive and are not listed. Cut-off read from the data, not from the text of the source: active = potency below about 15 µM; inconclusive = mostly about 16 µM to 33 µM; inactive = weaker than that. The list shows a part of the results.
Potency is the fitted concentration of half-maximal effect.

Chain of UniProt P04062 (P04062 whole entry, looked up): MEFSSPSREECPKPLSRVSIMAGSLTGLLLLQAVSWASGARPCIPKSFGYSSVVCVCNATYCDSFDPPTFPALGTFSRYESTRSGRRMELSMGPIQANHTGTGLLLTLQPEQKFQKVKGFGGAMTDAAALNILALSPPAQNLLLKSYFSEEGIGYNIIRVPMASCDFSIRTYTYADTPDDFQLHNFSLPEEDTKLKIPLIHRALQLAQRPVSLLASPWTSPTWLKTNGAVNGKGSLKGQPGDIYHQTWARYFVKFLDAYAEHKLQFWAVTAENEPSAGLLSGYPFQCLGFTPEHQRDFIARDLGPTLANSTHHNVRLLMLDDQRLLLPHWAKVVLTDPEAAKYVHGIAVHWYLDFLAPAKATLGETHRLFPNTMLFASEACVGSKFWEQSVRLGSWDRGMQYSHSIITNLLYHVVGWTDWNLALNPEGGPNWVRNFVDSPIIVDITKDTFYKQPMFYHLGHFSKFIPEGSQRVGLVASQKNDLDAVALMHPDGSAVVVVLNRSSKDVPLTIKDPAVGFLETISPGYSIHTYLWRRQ

The target of the test is Lysosomal acid glucosylceramidase (Homo sapiens) (UniProt P04062). Put plainly: Glucocerebrosidase.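 Note: the screen sought inhibitors.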 As to conditions: purified enzyme, resorufin glucoside fluorescence (screen aimed at inhibitors), 20 min; series mostly up to 77 µM. Put shortly:
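Wild-type enzyme at 0.2 nM final in 50mM citric acid/KH2PO4, 10mM sodium taurocholate, 0.01% tween-20, pH 5.9, with resorufin beta-D-glucopyranoside at 30 uM final. Compounds titrated, 20 min at RT, red fluorescence read; AC50 from titration.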
Take `CC(NC(=O)C1CCC1)c1ccc(Cl)cc1` (stereo unspecified): the Potency is inactive: > 76.9 µM. With `O=C(Cn1c(=O)oc2ccccc21)c1ccccc1` the figure was inactive: > 76.9 µM. With `COc1cc2c(cc1OC)C1(CCCC1)CNC2C` (stereo unspecified) the figure was inactive: > 76.9 µM; with `Cc1cc(C(F)F)n2ncc(C(=O)N3CCc4ccccc4C3)c2n1`, inactive: > 76.9 µM. Turning to `CNC(=O)CN(C1CCCCC1)S(=O)(=O)c1ccc(OC)c(Cl)c1`, the Potency was inactive: > 76.9 µM. The value for `O=C(CCN1C(=O)c2ccncc2C1=O)Nc1ccc2c(c1)OCCO2` was inactive: > 76.9 µM; that for `CCN1CCN(c2nc(SC)nc3sc4c(c23)CC(C)(C)OC4)CC1` was “inactive”; that for `Cn1c(=O)n(CC(=O)OCc2ccccc2)c(=O)c2c1nc1n2CCCN1C1CCCCC1` was inactive: > 76.9 µM. `Nc1nc(C2CC2)c(Sc2sc(N)nc2C2CC2)s1`: the Potency was inactive: > 76.9 µM. With `CCN(CC)CCSc1nc(O)c(C(C)C)c(=O)[nH]1` the figure was inactive: > 76.9 µM.

In the case of `CCc1c(C)nc2ncnn2c1N1CCC(C(=O)Nc2cccc(C(C)=O)c2)CC1`, the Potency was inactive: > 76.9 µM. Turning to `O=c1c(-c2ccccc2)c(O)c2cccc3c2n1CCC3`, the Potency was inactive: > 76.9 µM.

Turning to `CCOC(=O)c1cnn(-c2nc(C)cc(C)n2)c1N`, the Potency is inactive: > 76.9 µM. With `O=C(NCCc1ccc(Cl)cc1)C1CCN(C(=O)c2sccc2-n2cccc2)CC1` the figure was inactive: > 76.9 µM; with `C=CCNc1nc(NC(C)(C)CO)nc(OCC)n1`, inactive: > 76.9 µM. Regarding `COc1cccc(NC(=O)N(Cc2cc3cc(C)cc(C)c3[nH]c2=O)CC2COCCO2)c1` (stereo unspecified), the Potency was inactive: > 76.9 µM. For `CC(C)Cn1cc(C(=O)NCC2CCCO2)c2c3ccccc3n(C)c2c1=O` (stereo unspecified), the Potency was inactive: > 76.9 µM. With `Cc1ccnc2nc(C(=O)NC3=NCCS3)nn12` the figure was inactive: > 76.9 µM.

On to `C=CCNc1ncnc2c1ncn2C1OC(CO)C(O)C1O` (stereo unspecified), for which the Potency was inactive: > 76.9 µM. The value for `CCOc1ccc(C(=O)N(CN2CCCC2=O)c2ccccc2)cc1` was inactive: > 76.9 µM; that for `COCCNC(=O)C(OC(=O)CC1Sc2ccccc2NC1=O)c1ccncc1` (stereo unspecified) was inactive: > 76.9 µM; that for `O=C(NCC1CCCO1)C1CCCN1C(=O)NC1CCCCC1` (stereo unspecified) was inactive: > 76.9 µM. The value for `O=C(NCc1cccs1)c1ccccc1C(=O)NCc1cccs1` was inactive: > 76.9 µM; that for `O=C(O)Cc1ccc(C(=O)c2cccs2)s1` was inactive: > 76.9 µM; that for `CCCCN1CC(C(=O)NC2CCCCC2)CC1=O` (stereo unspecified) was inactive: > 76.9 µM. With `Cn1c(=O)c2c(nc(CN3CCC(C(N)=O)CC3)n2Cc2c(F)cccc2Cl)n(C)c1=O` the figure was inactive: > 76.9 µM; with `Cc1ccc(C)c(C(=O)c2c(C)nc3sccn23)c1`, inactive: > 76.9 µM; with `Cc1ccc(NC(=O)CSc2nnc(NC(=O)CN3CCOCC3)s2)cc1`, inactive: > 76.9 µM. As to `C/C(N)=C(\C#N)C(=O)NCCc1ccccn1`, the Potency was inactive: > 76.9 µM. With `c1ccc(-c2csc3nnc(SCc4ccc5c(c4)OCCO5)n23)cc1` the figure was inactive: > 76.9 µM; with `C=CCSc1nnc(-c2ccccc2NC(=O)CC)c(=O)[nH]1`, inactive: > 76.9 µM. Consider `O=C(OCCNC(=O)c1cc2ccccc2oc1=O)c1cccnc1`, for which the Potency was inactive: > 76.9 µM. The value for `Cc1nc(N2CCC3(CC2)OCCO3)c2nnn(Cc3ccccc3F)c2n1` was inactive: > 76.9 µM; that for `CCOc1ccc(NC(=O)CSc2nnc(-c3ccccn3)n2N)cc1` was inactive: > 76.9 µM; that for `Cc1ccc(NC(=O)CC2NCCNC2=O)cc1` (stereo unspecified) was inactive: > 76.9 µM. With `COC(=O)c1[nH]c2ccc(F)cc2c1NS(=O)(=O)c1ccc(OC)cc1OC` the figure was inactive: > 76.9 µM; with `O=C(NC12CC3CC(CC(C3)C1)C2)N1CCC(O)(c2ccc3c(c2)OCO3)CC1`, inactive: > 76.9 µM. On to `CCc1nn2c(=O)cc(CSc3nc4sc5c(c4c(=O)n3C)CCCC5)nc2s1`, for which the Potency was inactive: > 76.9 µM.

On to `CC(C)(C)n1ncc2c(=O)n(CC(=O)Nc3ccccc3)cnc21`, for which the Potency was inactive: > 76.9 µM. The value for `COc1cccc(C2C(C#N)=C(N)OC(C(C)(C)C)=C2C#N)c1` (stereo unspecified) was “inactive”; that for `O=C(CSc1oc(-c2ccc(F)cc2)nc1S(=O)(=O)c1ccc(F)cc1)NCC1CCCO1` (stereo unspecified) was inactive: > 76.9 µM. The value for `CC(C)NC(=O)CN(C(=O)CCC(=O)Nc1ccccn1)c1ccc(F)c(Cl)c1` was inactive: > 76.9 µM; that for `N#Cc1ccccc1NC(=O)c1ccccc1OCC(=O)NCc1ccco1` was inactive: > 76.9 µM.

Consider `COc1ccc(OC)c(NC(=O)CSc2nnc(CNc3ccc(F)cc3)o2)c1`, for which the Potency is inactive: > 76.9 µM.

Turning to `COC(=O)c1ccccc1NC(=O)CSc1nc2ccccc2c(=O)[nH]1`, the Potency is inactive: > 76.9 µM. With `CC(C)OC(=O)CSc1nnc(Cc2ccccc2)n1Cc1ccco1` the figure was inactive: > 76.9 µM; with `COc1ccc(-c2noc(CCC(=O)Nc3cccnc3)n2)cc1OC`, inactive: > 76.9 µM. The value for `Cc1ccccc1Cc1c(C)nc2c(C(=O)NCc3ccco3)cnn2c1C` was inactive: > 76.9 µM; that for `Cc1ccc(Cl)c2c1NC(=O)C2(O)CC(=O)c1ccccc1O` (stereo unspecified) was inactive: > 76.9 µM. The value for `Cc1cccc2cc(COC(=O)C(C)(C)C)c(=O)[nH]c12` was inactive: > 76.9 µM; that for `O=S(=O)(c1ccccc1S(=O)(=O)N1CCCCC1)N1CCCCC1` was inactive: > 76.9 µM; that for `Cc1ccc2c(c1)CCCN2C(=O)c1ccncc1` was inactive: > 76.9 µM. Take `COCCNC(=O)c1cc2c(-c3ccccc3F)nn(C)c2s1`: the Potency was inactive: > 76.9 µM. The value for `CCOC(=O)CCC(=O)NCc1ccc2c(c1)cc(C)n2C` was inactive: > 76.9 µM; that for `CCS(=O)(=O)NCC(c1cccnc1)N1CCN(c2ccc(F)cc2)CC1` (stereo unspecified) was inactive: > 76.9 µM; that for `O=C(CCN1C(=O)C2C3C=CC(C3)C2C1=O)NCCc1ccccc1Cl` (stereo unspecified) was inactive: > 76.9 µM. With `COc1cc(NC(=O)c2ccc3c(=O)n(Cc4ccco4)c(=S)[nH]c3c2)cc(OC)c1OC` the figure was inactive: > 76.9 µM. Turning to `Cc1ccc(S(=O)(=O)CCc2nnc(NC(=O)C3CCCO3)s2)cc1` (stereo unspecified), the Potency is inactive: > 76.9 µM.

Turning to `COc1ccc(C(=O)CSc2nnc(-c3ccc(C)cc3)o2)cc1`, the Potency is inactive: > 76.9 µM. With `O=C(NCCO)c1ccc2c(c1)S(=O)(=O)c1ccccc1C2=O` the figure was inactive: > 76.9 µM; with `COc1cc(C(=O)Nc2nc3ccccc3[nH]2)cc(OC)c1OC`, inactive: > 76.9 µM. With `O=C(Nc1nccs1)c1ccc(COc2ccc(Cl)cc2)o1` the figure was inactive: > 76.9 µM; with `COC(=O)Cc1c(C)c2ccc(OC(=O)c3ccco3)cc2oc1=O`, inactive: > 76.9 µM; with `O=C(O)CCCc1nc2ccccc2s1`, inactive: > 76.9 µM. The value for `CSC(=O)CC(=O)NC(=O)c1ccccc1` was inactive: > 76.9 µM. For `CC1(C)CC(=O)C(Sc2nnc(-c3ccc(NS(C)(=O)=O)cc3)n2Cc2ccco2)C(=O)C1`, the Potency was inactive: > 76.9 µM. The value for `COc1ccc(C(C)=O)cc1COC(=O)c1cccc(N(C)C)c1` was inactive: > 76.9 µM. As for `O=C(NCc1ccc(Cl)cc1)c1cc(-c2ccco2)on1`, the Potency is inactive: > 76.9 µM. With `COCCNC(=O)CN(CC1CCCO1)C(=O)CCC(=O)Nc1ccccn1` (stereo unspecified) the figure was inactive: > 76.9 µM; with `Cc1cccc(NC(=O)C(C)Oc2ccccc2C)n1` (stereo unspecified), inactive: > 76.9 µM. With `O=C(O)CCCNS(=O)(=O)c1ccc(NCc2ccccc2)c(C(=O)O)c1` the figure was inactive: > 76.9 µM. With `CCCc1cc(=O)[nH]c(SCC(=O)c2ccc(S(=O)(=O)N3CCCC3)cc2)n1` the figure was inactive: > 76.9 µM; with `CC1=C(C(N)=O)C(c2ccc(C)o2)C(C(N)=O)=C(C)N1`, inactive: > 76.9 µM. Regarding `CCOc1ccc(Cc2nc(C)c(CC(=O)N3CCCCC3)c(=O)[nH]2)cc1`, the Potency is inactive: > 76.9 µM.

Regarding `Cc1noc(C)c1COC(=O)CCN1c2ccccc2Sc2ccccc21`, the Potency was inactive: > 76.9 µM. The value for `COC(=O)c1ccccc1NC(=O)c1ccccc1NS(C)(=O)=O` was inactive: > 76.9 µM; that for `Cc1cc(=O)[nH]c(SCn2nnc3ccccc3c2=O)n1` was inactive: > 76.9 µM; that for `COc1ccc(-c2cc3nc(C4CCN(C(=O)OC(C)(C)C)CC4)c(C(=O)O)cn3n2)cc1` was inactive: > 76.9 µM.

Consider `O=C(Nc1ccc(S(=O)(=O)N2CCCc3ccccc32)cc1)C1CCCO1` (stereo unspecified), for which the Potency was inactive: > 76.9 µM. On to `O=C(NCCCN1CCOCC1)c1cccs1`, for which the Potency was inactive: > 76.9 µM.

Take `COc1ccc(Cl)cc1S(=O)(=O)n1nnc2ccccc21`: the Potency was inactive: > 76.9 µM. The value for `CC1=C(C(=O)OCC2CCCO2)C(c2ccc(C)o2)C2=C(CC(c3ccc(N(C)C)cc3)CC2=O)N1` (stereo unspecified) was inactive: > 76.9 µM; that for `COC(=O)C1=C(C)N(CCc2ccccc2)C(=O)C1` was inactive: > 76.9 µM.

Turning to `COc1cc2cc(C(c3nnnn3Cc3ccc(F)cc3)N3CCCCCC3)c(=O)[nH]c2cc1OC` (stereo unspecified), the Potency is inactive: > 76.9 µM.

For the molecule `O=S(=O)(c1ccc(OCC(O)CN2CCN(c3ccc(F)cc3)CC2)cc1)N1CCOCC1` (stereo unspecified), the Potency is inactive: > 76.9 µM. The value for `COC(=O)c1ccc(NC(=O)CSc2nnc(-c3ccncc3)n2N)cc1` was inactive: > 76.9 µM. The value for `Cc1cc(NC(=O)CSc2nnc(-c3ccco3)o2)no1` was inactive: > 76.9 µM. The value for `COc1ccc(OC(=O)CCCN2C(=O)c3ccccc3C2=O)cc1` was inactive: > 76.9 µM.

Take `COC(=O)COc1cc(C)cc2oc(=O)c(CC(=O)OC)c(C)c12`: the Potency was inactive: > 76.9 µM.

Take `CCOC(=O)N1CCC(NC(=O)CCN2C(=O)COc3ccccc32)CC1`: the Potency was inactive: > 76.9 µM.

In the case of `Cn1c(=O)n(-c2ccccc2)c(=O)c2c3c(sc21)COC(C)(C)C3`, the Potency is inactive: > 76.9 µM.
